# Results as given in paper PMC10726135.
# The list shows a part of the results. At the low end of the ranking the order means little. The protein was read in a cell extract, so binding may be indirect.
# Target: T1, HNF4alpha2 (COS-7 nuclear extract) (UniProt P41235)
# T1 sequence: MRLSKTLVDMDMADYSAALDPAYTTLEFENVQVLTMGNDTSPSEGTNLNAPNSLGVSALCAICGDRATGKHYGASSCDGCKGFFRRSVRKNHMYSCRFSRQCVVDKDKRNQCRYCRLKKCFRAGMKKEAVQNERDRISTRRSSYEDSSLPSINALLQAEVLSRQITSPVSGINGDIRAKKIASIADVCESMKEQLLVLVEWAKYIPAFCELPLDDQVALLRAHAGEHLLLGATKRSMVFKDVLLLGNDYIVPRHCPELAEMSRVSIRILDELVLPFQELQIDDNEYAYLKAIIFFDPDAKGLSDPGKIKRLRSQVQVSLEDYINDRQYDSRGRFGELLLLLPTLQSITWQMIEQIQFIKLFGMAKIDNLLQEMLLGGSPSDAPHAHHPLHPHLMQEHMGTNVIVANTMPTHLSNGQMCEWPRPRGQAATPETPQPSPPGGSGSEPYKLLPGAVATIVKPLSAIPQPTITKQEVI
# Experiment: protein-binding microarray
# Conditions: COS-7 nuclear extract on double-stranded Agilent 4x180k PBM; binding buffer, salt, pH and temperature not given; high values mean tight binding; double strand, one strand shown; sequences stand for … in …GCCTAGGGAGATTAGAGTATCGGTCGA
row,Sequence,binding signal (log2 normalized intensity)
1,TATTCAAACAGAGGACAGTTGTGTTTGTTG,1.96
2,AGTGCTTGTCAGTTTTGTTTTTGATCCCAA,2.3
3,TTGCATCAGCAGAGGACAGAAGAAGGAAAA,-1.12
4,CCCTCTTTAGGGTAGCCTGGGTTAAAGTCC,5.5
5,GTTCTGTTCCAGTTATGTTCTCTGTACGGA,1.8
6,GCCCTTTTTTTCTCTCCCCTTTTAATACAA,1.84
7,ATCAGAGCTGGATGTGAGTTATGACTACTT,-0.608
8,CAGCACATGAAGGTCTCCTTGACTTCAAAG,-1.1
9,CCTGGTGGCCATCAAGCAGATCATCCAGAG,-1.01
10,TTCAGCTTCTCTTGTTTGTGTAACTGTGGG,2.04
11,TTGATATGTTAGTCTTGAGTCCCAAAGTCC,3.43
12,TGGTGTTTGATCTGATGTACCCAGCACTGT,1.32
13,TGTTTGAGTTCCAAAGTCCATGTTCATAAC,5.11
14,GAAAAGAATATCTCAGCAGCCTGGCTGCTC,-1.08
15,CCTGGCCATTTCTCAGGTTGTGTTTGCAGT,1.53
16,GGGTGGGGTGCTGCCTTTCCTGTGACTTTT,1.74
17,ACCTGATGACAAAGGTGAGAGAGCATCCAG,-1.09
18,TAAGCAGATCTTTAGAGACAGAAAATGCTT,-0.658
19,TAAAGTTTATAGGCTAGAATGGAAACCAAT,-1.05
20,TTCTTTGGGGCTTAGATAGCAGTGTGAGTG,1.84
21,GAAAGGAGGTCATGTACATGAAAGCAAGTT,1.22
22,GTCTAGGTGCCAGAATTGCTGCTCCCCCTC,3.89
23,TTCCAGCTCAATCAAGGACTGGGCTGGAAC,-1.07
24,GTTTCTGTTTTGATCTTAAGATGATATAGC,1.76
25,TAGGTAAGAGACAAAGGTTGCATTCTTTTG,1.43

row,Sequence,binding signal (log2 normalized intensity)
1,CACTGTTTGCCATAGATCCCACCATTCCCA,1.4
2,TATGGGAAGTGGGGTAAGCAAGGCTCTTAG,-0.461
3,GGCTAAACCTAGCCCCCTTTCCCTTATCTT,2.53
4,AAATTTGTTTACTTCTGTCTCCAGAAATCA,0.729
5,CCAGGTTCCAAAGGTCACCCGTATTCCTTA,6.63
6,AAGGTTCAGAGCCTGGCTGGCCTGGCAAAT,-0.816
7,TTGTCAAGTTTGGTAAGCAGACCCCTACTG,2.36
8,GGATTCTGGGACCCACCCACCTATGTCCTT,2.38
9,ACATTCTTAGACAACACACCACCTGCTACT,-1.12
10,GTGGGGGTCGGGGCACTGGTCCCCTGCACA,-0.762
11,CCACTCTCATGGTCAATATTTTCTTTGTGC,1.63
12,CAGAAAGTGATGGGCTGGACTAAGAGTAGC,-1.11
13,AAGGGAGAAATTGCGCTAACCAGATGGTAG,-1.08
14,CATTAGACAGAAACCAAGCTGTCCGACTGC,-0.865
15,ACCCTTTGAGTCCTTCATGGCTACCCTTCA,0.859
16,GTTGTGGAATGTGCTTGGACCTGCTCTGTT,2
17,GTTCCGTGTTCCAGAGCCTCCAAAGTCCGC,2.22
18,TGGTTTCTGTTTGAGGGGAAGAGAGTATGG,1.37
19,TATCTTCTTTCAGTGTTGACCTTTGAACAT,8.83
20,CTGGGGCCTCCTGGCTGGGCAGGCTCCCTC,-1.19
21,CAATCCGCATCTTTTATAAGGGGCAGCAAA,-0.685
22,GAGAAATCTAGGCTGATAAGACACATTCCA,-1.16
23,TGACAGTGTGTACATAACAATGCAAGATAA,-1.03
24,CACAGCTAAGAGCCGCAGAGCTAATGTTCA,-1.07
25,GAGAGTATGGGATGATCAGTAAGGAGAGGG,-1.1

row,Sequence,binding signal (log2 normalized intensity)
1,AAGCAAGCCCTATTAGGCATTTCATTTGCC,-1.11
2,AGAAAATGTGCCCTTTGGACAGAAATATCA,4.29
3,CAGCTGGGCTTGTTCAAATAACAGCAACAT,-1.07
4,GATGTAATAGGGTGACAGTATCAAAGTCCC,2.41
5,GGAGCAAAGGTTGGGGGTGGGGAGGAAGCA,-1.08
6,CAACTCAGAGACAGGGATTGGTTCTCAACA,-1.07
7,TCCAAAATACGACCTTTGGACAGGGTGACG,6.8
8,GCATTATCAGGCAAGGGTGGTGACAAAGAC,0.479
9,GGCTGATGTCTTTCTGGCTGGAGAGGAGGT,0.687
10,ACTGGTTTCTTGTCTGCCCCAGGGCTTTGC,1.78
11,TCTCTTATAGGTGTTTATAAAGTTGGGAAA,1.74
12,CTGGGTGGGGATAAGAAAAGATCAAGGGCA,-0.893
13,GCAACTACAAGGAGCAGCCTAGTAAAAGGT,-1.1
14,TTGGGCCAGTCGCTTAACCTCTTGATCCTG,1.34
15,GTTCATTTGCACTTGTTTTTTCAGGTGTTG,2.38
16,TTAAGATTTGACCCTTGGCCAGGTGCAGTG,4.65
17,GCCTCCCTCCTTCCGCGGACGTGTTCCCAC,2.05
18,GCCCAGATAAGAACTGCAAGGCTAGAGATT,-1.18
19,CTGAGACAACACTCAGGATACCTAAGCCCC,0.598
20,CTTTGGCTCCAGAGTCCACATTCTTAAACG,2.12
21,GGAGGAGGTCAAAGTGCAACTACAAGGAGC,4.65
22,TCCATCTAGCAGCCCCAACCCACTGTTGCC,2.93
23,GAGGAGCTAACAGTAAAACTGAGATCTAAG,-1.03
24,TGGGCCCACAGATGATCAAAGGTCAGTCTT,6.53
25,GGGCAGGTGGAGGTGGGATACTGGGAGGGA,-1.1

row,Sequence,binding signal (log2 normalized intensity)
1,TTGGTTGGAGAAAGCAGCCAACCAGAGGCT,-1.01
2,GTCACCAAAGCAAGCAGATGATATGTGATG,-0.764
3,TTCAAAGGTTATCTGCTGGCAGAATTCCTT,-1.08
4,TGTTGATAAAGTGATTAGTGCAAGAATCCA,-0.902
5,GAGTCCAAACTGGGACCTGTGACACTCTGC,-0.119
6,AGATCCTCTAAATTCCAGGGCTGGGTCCAG,2.23
7,TGGAAAAACCACACACTCCATAACTTTGGG,-1.08
8,ATTTCCAAGACCTCTTTGCGGATAGATATG,0.223
9,TACTCTAGTACTAGGCAGCATAGGGCCACT,-1.06
10,GGGGCTGCCGGGAAAGGCATACGTGCTTAA,-1.18
11,TCAGGACTCTAACTGGCTTTAAGAGGAATG,-0.943
12,CCCTTGGCCCCGCTGTCCTGATCCCTGAGG,1.3
13,TTATCAGGTCTTTCTTTCAGAACAGAGCCC,1.32
14,CTAGCCGCTCCTCCCACGTCGCTGCCGCAG,-1.18
15,GGTTGGCGCCAATACCTGCCGCGCGGGGCG,-1.14
16,GACTCATTATCCCCCGCAACTATTTATGAG,2.91
17,AAAAAGCTTTTGTCATGACCTTCGCTCTTG,5.5
18,GATATTCAGACCTCTTTGAGGCCTTCGTTG,-1.19
19,CCATCTCGTCCCGTCAATCTGCAGCCGCCG,-1.23
20,TATTTGCTCACCAGTGACCAATAATGTAAT,0.767
21,CTCTCCAAGCCAGAAAGATGTTTGCCCCAA,2.98
22,AATCCATTGTCAATACCCTGTTATTAGTCC,0.805
23,CTCCCACCTTCGAGCTTCACCTTTGTCCTC,5.27
24,GAATGTTGAACCTTTCTTTGTCTTTGCAAT,2.02
25,GAGATGGAATCTTGCCCTGTCGCCCAGGCT,-0.996

row,Sequence,binding signal (log2 normalized intensity)
1,AGATTCGGTGAGGGATTGTTTAGGTACAAA,1.53
2,CCCACCTATGTCCTTATCCTCATTGTGTGC,2.45
3,ATTTTTATGTGGCATTTCAAAGGAGGAGGC,-0.651
4,AGAATAAACGCTGAAGTCTCAAAGTTCACC,3.52
5,ATGTACATGTGCAAAAGCACCCAAGGCTCT,-0.928
6,AGAAATAGCATCACGAAAGGCAACATCTTG,-1.12
7,TCCGGCTGGCCTTCCCTCCTCCCTCCGTCT,1.98
8,CTGAAGTCTCAAAGTTCACCACTTTTGCAA,2.61
9,TCGCGAGAGAACTGAAAAAGGGGACCGGCC,-1.06
10,TATTTGGAACCAAGAGCAGATTTGTTTGCT,-1.12
11,AGTGGTTTCAAGGTGACCCCACGGAGCTGC,2.52
12,CATTCAAAGCCTAGGCTCCAGGGCACTGCC,-1.32
13,GGGAAGCAGTGAGGGTGGGTTCAAAGGTCA,8.24
14,GAAATTCTGGCCAACCAGCACTTCTGGAGG,-1.17
15,AGCATGCGGTAAAGAAGCCAGCCAAATCCC,-1.03
16,TAAGGTTCCAGCAAAGAGATTAGGACACAG,-1.22
17,TTCCCCCTCCCTGGACTCCTGGGACTTATT,3.36
18,CTTCTCATACTACTGTACTTTGCTCTCAGC,4.45
19,ACCAGGATAGGGAGGGGTAAGGGTGGGGGT,-1.05
20,ATTAGAACAAACGACGCTCCTATCATCCCT,-1.11
21,ACATCACCTACCTGACTCCTTAGGGATTTG,-1.23
22,GGACAGGTGCGACGAACGGGTAAATCCGGT,-1.19
23,TAATCAACTGCAGGAGTCGGGAGGTAGGGG,-1.14
24,ACCAGACAGCACCTCTCTGATGCCATGATA,-1.24
25,TATATGAGTGTATAGTGGCACTGTTATGAC,1.76

row,Sequence,binding signal (log2 normalized intensity)
1,AGACTTTGCACCAAGGAGACACCCCTGCAG,1.03
2,GTTCTTGCTACCTACTCATTCATATCACCT,0.369
3,TGGGCCAAAGGTCATACCTGTCTAGGTGGA,4.07
4,GGGCATTAGGTGGACAGGGGTGTGTTGACC,2.93
5,TCAGAGGCCTGAAGGCCCCCAGGTAGCTGC,1.81
6,CCTGTCTGACAGGATGAATTTATTGCCCTC,2.87
7,CCCCAAATCCCCTTCAAGTCTGAGATGAAG,1.96
8,TGGTCCCAGGGGAGGTTATCTTGGGGCTAA,-1.07
9,ATAATAAATAAGGGAGGTAAAAGTCCAACA,2.47
10,TCTGACTCGGGTGTTCACAGGTGACCTCTG,4.72
11,GTAAACATTTGCCTTTAGGGCCCCCTGTGA,2.28
12,TAAGGTGTTGAAAAGAGCATAAGGTTTCCA,-1.02
13,TGGCCTTGCTTTTCACAGTCGATCTTTGAC,2.3
14,TCCTTTCCTCCTATGTCAATAGAGCATGAG,0.00627
15,TCTTTTCTAAGACATAACACAGGTGACCTT,4.03
16,GTCAATAGTTGTGTAAATAGCTCAGGGACT,-1.12
17,GTCCACACATTCCTAGACCTTTGACCTTTA,8.13
18,AAGCAAACAAAACACGGACTTTGAAGCTCC,1.95
19,AGGTCAAAATATCTGATCGATATCCTAACC,-0.858
20,AATCTGCATCCCCAAGCTGTTATTCCAGGC,1.83
